Publication PMC10726135
This is one part of the list. At the low end of the ranking the order means little. Measured with an extract: partners may take part in the binding.

Each sequence was assayed against T1, HNF4alpha2 (COS-7 nuclear extract) (UniProt P41235) (assay: protein-binding microarray). Settings: COS-7 nuclear extract on double-stranded Agilent 4x180k PBM; binding buffer, salt, pH and temperature not given; high values mean tight binding; double strand, one strand shown; sequences stand for … in …GCCTAGGGAGATTAGAGTATCGGTCGA.
T1 sequence: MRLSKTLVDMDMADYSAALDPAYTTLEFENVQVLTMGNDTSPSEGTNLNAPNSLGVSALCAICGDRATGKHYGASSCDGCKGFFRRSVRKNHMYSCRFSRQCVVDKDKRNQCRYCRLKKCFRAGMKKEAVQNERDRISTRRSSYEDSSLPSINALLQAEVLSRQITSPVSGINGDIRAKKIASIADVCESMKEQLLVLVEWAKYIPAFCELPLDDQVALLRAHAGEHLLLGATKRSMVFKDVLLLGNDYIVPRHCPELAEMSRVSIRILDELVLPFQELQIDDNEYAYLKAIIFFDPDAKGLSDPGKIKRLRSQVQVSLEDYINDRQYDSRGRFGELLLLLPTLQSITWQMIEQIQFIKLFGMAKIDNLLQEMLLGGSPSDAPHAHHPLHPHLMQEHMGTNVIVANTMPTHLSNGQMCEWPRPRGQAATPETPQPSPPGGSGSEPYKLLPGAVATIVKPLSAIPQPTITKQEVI

Row | Sequence | binding signal (log2 normalized intensity)
1 | CAGCTAGTGAGATACGGCCTGGACTCCAAG | 0.767
2 | GCTCACTCCTGGGACAAGGACTTTGGCTAG | 2.6
3 | GTCTAAAGTTCAGTGAGATTAGGAAGTGTG | 1.75
4 | TTTGGAAAATATTGCCAATATCTGCCATCT | -1.17
5 | CTGAACCTTGGATCTCCTGCACCTGAACTT | 1.96
6 | TCTTAGCCATGTTCTCTAGAAACAGAGCCC | -1.08
7 | CAGCACTCTCTGATTACACAGGCCTTATAG | -0.632
8 | CTTAGATAGCAGTGTGAGTGTCAGAGGCTA | -0.858
9 | AGAATCTTATCAGCAGATAAGGGCAGAGAG | -0.591
10 | CCCAACAGACTTTCCCCCTATTTCCCTCTG | 2.54
11 | TTTGTTGTTGAGCAAATCATAGTGTTTCTT | 0.883
12 | ATTAACACAGCTCTAGAGGGCTGCTTATCT | -1.16
13 | GAAGAATCTGTATCAGCCTGTGACAAAGTC | -0.808
14 | GGACGCTTTAGAGAAACGCACTCGCCTCTC | -1.11
15 | AAAAGAAAGCCCATTAAATCTTCCCTCCTG | -1.14
16 | TATCATCTTCCCTGTTCAAACTAAACCTAA | -1.18
17 | TTGATCAGCATTCAAATGAGGGCAGGATGC | -0.174
18 | ATCACAAACTTTAGTAGTCCAAAGCTCAGA | 0.282
19 | CTATCTGCTGGGGGCTGGGCCCCACAGTGC | -1.1
20 | GGCCCCAGGAGACCCCGCGAGACGGGTGCG | 1.17
21 | CTGCCCTTCGTCCTGAGCAGTCCCTTCCCC | 2.55
22 | GACGCGCCGGCGCAGCCGCGCTCCGCCCCG | -1.05
23 | TAGGGGTGGGATGGGGAGCAGTGGGAGGTG | -1.11
24 | CCCTGGGGAAGGCAGGTCTCTCTCATTCAC | -0.807
25 | TGGATACAGGGTAGGGCCAACCAACCCAAC | -1.15

Row | Sequence | binding signal (log2 normalized intensity)
26 | TGAAGGTAGGACAGGGTGATCAGAGATCTA | -1.12
27 | TCAAGTGATCGAAGGTCAACTTATCAGCAT | 3.19
28 | GGGACAAGCACATTAGGAGGAAAAAGAATG | -1.13
29 | ATAAATAAAGCCCTGGGGTAATAAAAGTGT | -0.0726
30 | GGCCGCTCTCCCTCCAGGCCCCAGCCACGC | 2.21
31 | TTATGGCCACTGTGTGTGTGTGTGTGTCTG | 2.84
32 | AGTCCAAGTTCCACATCAAGCACATTCCAG | -1.06
33 | TCAGGAGAGCATCTGAGTGTCAAAAACAAT | -0.512
34 | GGTGGGCTGCTCCCAGTGCCCTTTGAACTC | 8.32
35 | GCCCTTAAAGGCTTTTGCAAGAAAACCAGC | -1.14
36 | TGGGAATGGAGAGAGAGAGAATAGCTCAGG | -1.26
37 | TTACAAGGAGATATGCACTTGCCCTTTGGT | 3.77
38 | TGGCAAAGCTATTCACTTTTTGGCCTTTGG | 3.25
39 | GTGCCCTCATAAGAGACTTTGCCCTTTTTT | 5.63
40 | GGAGAGGTGGAGAAAGGCAGAAGGTTCCAG | -0.945
41 | AAGATGACCAGCGTGTGGCGCCATTTCAGG | -1.12
42 | CTTGAGGACAGGCCAAATCCAGTAAGGCAC | -1.09
43 | TCAGGGCCACGGGAAAACCTGACTGCGCTC | -1.15
44 | TGCATGCAAAAAGGCTGACCTTTGACTCTC | 7.57
45 | CCACCTGGAATGTGCTCCCGACTGCTCCAC | -1.24
46 | GCAAACCTGCCCTTTGCTCCAGAGGAAGAT | 2.77
47 | ACCCATATCTGACTGATGCTAAAGTCTACA | 0.98
48 | CAGAAACCTCATTGTGATGTGTGCGTTCAT | 1.61
49 | ACTAAGATTTGACTGGAATGTCAAAGGGAC | 1.29
50 | AACTCCAAGATTAGTGGGAAAGCTATTGCT | -1.07

Row | Sequence | binding signal (log2 normalized intensity)
51 | CGAGCATGGCCGCTCCGCGAGGTGAGCCAT | 0.717
52 | GATCAATGAATACATGAGTGATCCTGAAAA | -0.515
53 | TCAGAAATGCATGAGTGACCTTTATCCAGT | 5.05
54 | GGAGGAGACTTTGACCTCTGCTAGGTTTGG | 4.76
55 | CCTCATTTTTCCTGGATGCCAGGCAAGAGC | 0.346
56 | ACTTAAGTCTCAAAGGTCAGATGACAGAAT | 3.83
57 | GGGCAGCTCCGTTTACCTAGAGGCAGGCGT | -1.1
58 | TAGAATTGCACTGCAAAGAAGTCAAACTTT | 0.602
59 | GATAACATCTGGACTTTACACAGACCTTTA | 3.25
60 | ACAGATCAGATATGAGATTCCCAGAGAGCT | -1.14
61 | CTGGCTTTCTTTGGAGTCAATCTGCAAAGG | 1.16
62 | ACATGGAATGTCGTGCCCTAATCTCACTCT | -1.16
63 | ATACTGCAGCTCTGCGTCTTACTAAATGCA | -0.924
64 | TGTGTCTTATTTATCTTCACATTCCATCAT | 1.43
65 | AGATTAATGTCAGCCTGCTCAGGGAGAAGC | -1.16
66 | GCCTCACACCCTCTAGGGTAGATAAGGATG | -1.05
67 | GATGGGGGTGGGAGGCTGGGAGGAGGGTAA | -1.13
68 | TAGCATGAATTTGGTACCTCCCCCCACACC | 5.45
69 | GAAAAGGAAATATCTTCGTATAGAAACAAG | -0.946
70 | CTGAGAAGATGAAAGACGAAAGGGACTTTG | 1.96
71 | CCCAGATGGAGTGCTCTGAACCGTGTACCT | 1.61
72 | GGGACTGTGCAGACAAGATATGAGGCCAGT | -1.1
73 | TCCCATCTTGCAGCTGACCCTGGCCGGAAA | 1.07
